# ChEMBL document CHEMBL5606458, “ASAP - ZIKV NS2B-NS3 protease fluorescence single point” (2024)
# The whole screen tested about 2,700 compounds, of which about 160 (5.9%) showed an effect of 50% or more. The list shows a part of the results.
# Target: Nonstructural protein 3 (Zika virus) (UniProt A0A024AXB9)
# [1] = PRVABC59, Concentration 15.0 uM, Number of replicates 1.0
# [2] = PRVABC59, Concentration 50.0 uM, Number of replicates 1.0
# UniProt A0A024AXB9, sequence (A0A024AXB9 as listed by the source): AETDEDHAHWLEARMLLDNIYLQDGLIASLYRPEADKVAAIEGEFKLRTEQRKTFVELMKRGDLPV
structure (smiles),measurement,setting,value
O=C(NCC1(c2ccccc2F)CCCC1)c1cc(Cl)ccc1NS(=O)(=O)c1ccc(Oc2ccccc2Cl)cc1,inhibition,[1],26.5%
O=C(NCCCc1nnc2ccccn12)c1cc(Cl)ccc1NS(=O)(=O)c1ccc(Oc2ccccc2Cl)cc1,inhibition,[1],14%
O=C(N[C@@H](Cn1ccnc1)c1ccccc1)c1cc(Cl)ccc1NS(=O)(=O)c1ccc(Oc2ccccc2Cl)cc1,inhibition,[1],14.8%
CCS(=O)(=O)N1CCN(C(=O)c2cc(Cl)ccc2NS(=O)(=O)c2ccc(Oc3ccccc3Cl)cc2)CC1,inhibition,[1],1.61%
O=C(NCCc1ccc(-c2ccccc2)cc1)c1cc(Cl)ccc1NS(=O)(=O)c1ccc(Oc2ccccc2Cl)cc1,inhibition,[1],1.08%
Cc1ccc([N+](=O)[O-])c(NC(=O)c2cc(Cl)ccc2NS(=O)(=O)c2ccc(Oc3ccccc3Cl)cc2)c1,inhibition,[1],24.1%
CCS(=O)(=O)CCN(C)C(=O)c1cc(Cl)ccc1NS(=O)(=O)c1ccc(Oc2ccccc2Cl)cc1,inhibition,[1],0.126%
O=C(Nc1ncc(C(F)(F)F)cc1Cl)c1cc(Cl)ccc1NS(=O)(=O)c1ccc(Oc2ccccc2Cl)cc1,inhibition,[1],21.3%
Cc1cc(CO)c2cccc(CC(=O)Nc3cc(C)[nH]n3)c2n1,inhibition,"PRVABC59, Concentration 49.95 uM, Number of replicates 2.0, Standard deviation 1.1960706203468343 %",0.209%
same,inhibition,"PRVABC59, Concentration 99.9 uM, Number of replicates 2.0, Standard deviation 0.6463869966486608 %",7.1%
O=C(NCc1ccc(Br)cc1F)c1cc(Cl)ccc1NS(=O)(=O)c1ccc(Oc2ccccc2Cl)cc1,inhibition,[1],34.5%
O=C(NC[C@H](O)c1ccc(O)c(O)c1)c1cc(Cl)ccc1NS(=O)(=O)c1ccc(Oc2ccccc2Cl)cc1,inhibition,[1],32.7%
O=C(Nc1cccc(Br)c1)c1cc(Cl)ccc1NS(=O)(=O)c1ccc(Oc2ccccc2Cl)cc1,inhibition,[1],43.8%
O=Cc1ccc(N2CCC(C(=O)Nc3c(F)cccc3Br)CC2)cc1,inhibition,[2],23.9%
O=Cc1ccc(N2CCC(C(=O)NCCSCc3ccccc3)CC2)cc1,inhibition,[2],24.5%
O=Cc1ccc(N2CCC(C(=O)N(Cc3ccccn3)Cc3ccccn3)CC2)cc1,inhibition,[2],-3.66%
CC(C)(C)OC(=O)[C@H]1CCCN1C(=O)c1cc(Cl)ccc1NS(=O)(=O)c1ccc(Oc2ccccc2Cl)cc1,inhibition,[1],9.29%
CNC(=O)c1cc(Br)cnc1NS(=O)(=O)c1ccc(Oc2ccccc2Cl)cc1,inhibition,"PRVABC59, Concentration 49.5 uM, Number of replicates 2.0, Standard deviation 0.2698167063214057 %",2.96%
same,inhibition,"PRVABC59, Concentration 99.01 uM, Number of replicates 2.0, Standard deviation 1.1934203843656208 %",1.55%
same,inhibition,"PRVABC59, Concentration 198.0 uM, Number of replicates 2.0, Standard deviation 2.3183489334478296 %",-1.65%
Cc1c(Br)cccc1NC(=O)c1cc(Cl)ccc1NS(=O)(=O)c1ccc(Oc2ccccc2Cl)cc1,inhibition,[1],40%
O=Cc1ccc(N2CCC(C(=O)Nc3c(Cl)c(F)nc(F)c3Cl)CC2)cc1,inhibition,[2],19%
CCOc1ccccc1CCNC(=O)C1CCN(c2ccc(C=O)cc2)CC1,inhibition,[2],11.7%
O=C(Nc1ccncc1Br)c1cc(Cl)ccc1NS(=O)(=O)c1ccc(Oc2ccccc2Cl)cc1,inhibition,[1],22.6%
O=Cc1ccc(N2CCC(C(=O)N3CCC(c4nc5ccccc5[nH]4)CC3)CC2)cc1,inhibition,[2],23.4%
CCN(Cc1cc(Br)ccc1F)C(=O)c1cc(Cl)ccc1NS(=O)(=O)c1ccc(Oc2ccccc2Cl)cc1,inhibition,[1],30.3%
CNC(=O)c1cc(Cl)ccc1NS(=O)(=O)c1ccc(Cn2cncn2)cc1,inhibition,"PRVABC59, Concentration 49.5 uM, Number of replicates 2.0, Standard deviation 1.2710076748523556 %",3.9%
same,inhibition,"PRVABC59, Concentration 99.01 uM, Number of replicates 2.0, Standard deviation 2.5202512228958676 %",4.47%
same,inhibition,"PRVABC59, Concentration 198.0 uM, Number of replicates 2.0, Standard deviation 0.07834930550781156 %",10.3%
CCc1ccc(-c2ccccc2C(=O)Nc2cnn(C)c2)c(F)c1,inhibition,"PRVABC59, Concentration 99.01 uM, Number of replicates 2.0, Standard deviation 6.546855425330618 %",-2.21%
same,inhibition,"PRVABC59, Concentration 198.0 uM, Number of replicates 2.0, Standard deviation 6.158335154751372 %",0.596%
CC(C)Nc1nc2ccc(C(=O)Nc3c[nH]c(C(N)=O)c3)cc2[nH]1,inhibition,"PRVABC59, Concentration 49.5 uM, Number of replicates 2.0, Standard deviation 2.468176515630838 %",2.75%
same,inhibition,"PRVABC59, Concentration 99.01 uM, Number of replicates 2.0, Standard deviation 1.3712092783760954 %",6.54%
same,inhibition,"PRVABC59, Concentration 198.0 uM, Number of replicates 2.0, Standard deviation 3.135895465303712 %",13%
O=C(NCC12CC3CC(CC(C3)C1)C2)c1cc(Cl)ccc1NS(=O)(=O)c1ccc(Oc2ccccc2Cl)cc1,inhibition,[1],23.8%
O=C(Nc1cc(Cl)cc([N+](=O)[O-])c1O)c1cc(Cl)ccc1NS(=O)(=O)c1ccc(Oc2ccccc2Cl)cc1,inhibition,[1],92.4%
O=C(Nc1cc(Cl)c(F)c(Cl)c1)c1cc(Cl)ccc1NS(=O)(=O)c1ccc(Oc2ccccc2Cl)cc1,inhibition,[1],24.3%
CC(C)(C)C1CCC(NC(=O)c2cc(Cl)ccc2NS(=O)(=O)c2ccc(Oc3ccccc3Cl)cc2)CC1 (stereo not drawn),inhibition,[1],28.9%
O=Cc1ccc(N2CCC(C(=O)N[C@H]3CCC[C@@H]3OCc3ccccc3)CC2)cc1,inhibition,[2],24.7%
CCn1ccnc(N[C@@H](Cc2c[nH]c3ccccc23)C(=O)O)c1=O,inhibition,"PRVABC59, Concentration 49.5 uM, Number of replicates 2.0, Standard deviation 1.5281595903710257 %",-4.52%
same,inhibition,"PRVABC59, Concentration 99.01 uM, Number of replicates 2.0, Standard deviation 1.7817962479896445 %",-2.25%
same,inhibition,"PRVABC59, Concentration 198.0 uM, Number of replicates 2.0, Standard deviation 2.4010917983245332 %",2.42%
CN(C(=O)c1cc(Cl)ccc1NS(=O)(=O)c1ccc(Oc2ccccc2Cl)cc1)C1CCN(C(=O)OC(C)(C)C)CC1,inhibition,[1],17%
CCCCCN(CCCCC)C(=O)C1CCN(c2ccc(C=O)cc2)CC1,inhibition,[2],26.1%
C[C@@H]1CCN(Cc2ccccc2)C[C@@H]1N(C)C(=O)C1CCN(c2ccc(C=O)cc2)CC1,inhibition,[2],28%
c1ccc2[nH]c(CN3CC[C@H](c4c[nH]c5ccccc45)C3)cc2c1,inhibition,"PRVABC59, Concentration 49.5 uM, Number of replicates 2.0, Standard deviation 2.2954481937210667 %",10%
same,inhibition,"PRVABC59, Concentration 99.01 uM, Number of replicates 2.0, Standard deviation 2.0493220623602406 %",9.75%
same,inhibition,"PRVABC59, Concentration 198.0 uM, Number of replicates 2.0, Standard deviation 2.000096566348245 %",8.07%
CC(C)Cn1cccc(C(=O)N[C@H]2CCCN(C)C2)c1=O,inhibition,"PRVABC59, Concentration 49.5 uM, Number of replicates 2.0, Standard deviation 0.18069500350899767 %",-4.57%
same,inhibition,"PRVABC59, Concentration 99.01 uM, Number of replicates 2.0, Standard deviation 0.9453197574457564 %",-7.61%
O=Cc1ccc(N2CCC(C(=O)N3CCC[C@H](c4nc5ccccc5o4)C3)CC2)cc1,inhibition,[2],21.4%
COc1cc(Br)ccc1NC(=O)C1CCN(c2ccc(C=O)cc2)CC1,inhibition,[2],23.3%
C[C@H](NC(=O)c1cc(Cl)ccc1NS(=O)(=O)c1ccc(Oc2ccccc2Cl)cc1)c1ccccc1-n1cccn1,inhibition,[1],23.9%
Cc1cc(N)cc(CNC(=O)c2ccccc2Cc2cccc3c(CO)cc(C)nc23)c1,inhibition,"PRVABC59, Concentration 49.95 uM, Number of replicates 2.0, Standard deviation 0.03145975642768365 %",34.6%
same,inhibition,"PRVABC59, Concentration 99.9 uM, Number of replicates 2.0, Standard deviation 1.7408307334956623 %",60.7%
CCCN(C[C@H](O)COc1ccccc1C(=O)CCc1ccccc1)C(=O)C1CCN(c2ccc(C=O)cc2)CC1,inhibition,[2],32.4%
CNC(=O)c1cc(Cl)ccc1NS(=O)(=O)c1ccc(F)c(C(=O)N2CCCC2)c1,inhibition,"PRVABC59, Concentration 49.5 uM, Number of replicates 2.0, Standard deviation 4.918625223841024 %",0.943%
same,inhibition,"PRVABC59, Concentration 99.01 uM, Number of replicates 2.0, Standard deviation 3.521387569111147 %",4.53%
same,inhibition,"PRVABC59, Concentration 198.0 uM, Number of replicates 2.0, Standard deviation 3.3733929566625998 %",9.77%
Cc1cc(CO)c2cccc(Cc3ccccc3NC(=O)c3cccc(Cn4cncn4)c3)c2n1,inhibition,"PRVABC59, Concentration 49.95 uM, Number of replicates 2.0, Standard deviation 1.9900579035293746 %",-2.33%
same,inhibition,"PRVABC59, Concentration 99.9 uM, Number of replicates 2.0, Standard deviation 1.165532699789781 %",0.115%
O=Cc1ccc(N2CCC(C(=O)Nc3ccc(OC(F)F)cc3)CC2)cc1,inhibition,[2],9.85%
O=C(NCCc1csc(-c2ccncc2)n1)c1cc(Cl)ccc1NS(=O)(=O)c1ccc(Oc2ccccc2Cl)cc1,inhibition,[1],31.3%
